Some of the results follow. Many values rest on one well or one pass, so single values are uncertain.
How the values were obtained:
Test in all cases: cell count relative to DMSO control; melanoma cells; higher = more viable cells
Conditions in all cases: library dose: low library concentration; 72 h
MZ2-MEL = test system: MZ2-MEL
MeWo = test system: MeWo
RPMI7951 = test system: RPMI7951
RVH-421 = test system: RVH-421
SkMel28 = test system: SkMel28
SkMel2 = test system: SkMel2
SkMel30 = test system: SkMel30
UACC62 = test system: UACC62
WM115 = test system: WM115
WM1716 = test system: WM1716
WM1745 = test system: WM1745
WM3526 = test system: WM3526
WM3619 = test system: WM3619
WM451Lu = test system: WM451Lu
SkMel5 = test system: SkMel5
UACC257 = test system: UACC257
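Note: cell number obtained by counting DAPI-stained nuclei in high-throughput microscope images with image analysis software, screen run in 1,536-well plates.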

Row | Compound | cell count (MZ2-MEL) | cell count (MeWo) | cell count (RPMI7951) | cell count (RVH-421) | cell count (SkMel28) | cell count (SkMel2) | cell count (SkMel30) | cell count (UACC62) | cell count (WM115) | cell count (WM1716) | cell count (WM1745) | cell count (WM3526) | cell count (WM3619) | cell count (WM451Lu) | cell count (SkMel5) | cell count (UACC257)
1 | Nc1ncn([C@H]2C[C@H](O)[C@@H](CO)O2)c(=O)n1 [decitabine] + C=CCNC1=C2C[C@@H](C)C[C@H](OC)[C@H](O)[C@@H](C)/C=C(\C)[C@H](OC(N)=O)[C@@H](OC)/C=C\C=C(/C)C(=O)NC(=CC1=O)C2=O [Tanespimycin] (first compound 0.1 µM, partner dose 0.002 µM) | 81.7% | 96% | 62.8% | 72.4% | 86.9% | 94.5% | 97.1% | 80.6% | 86.2% | 83.8% | 89.5% | 83.8% | 102% | 81.8% | – | –
2 | Nc1ccn([C@@H]2O[C@H](CO)[C@@H](O)C2(F)F)c(=O)n1 [gemcitabine] + OCc1c[nH]c2ccccc12 [Indole-3-carbinol] (first compound 0.0004 µM, partner dose 0.8 µM) | 103% | 92.6% | 84.8% | 99.7% | 81.9% | 96.7% | 123% | 84.9% | 98.3% | 88.1% | 70.1% | 117% | 52% | 93.8% | – | –
3 | Nc1ccn([C@@H]2O[C@H](CO)[C@@H](O)C2(F)F)c(=O)n1 [gemcitabine] + Clc1ccc(Nc2nnc(Cc3ccncc3)c3ccccc23)cc1 [vatalanib] (first compound 0.0004 µM, partner dose 2 µM) | 85.2% | 70.9% | 77.8% | 60.6% | 79.8% | 97% | 80.6% | 80.6% | 88.8% | 73.4% | 60.3% | 85.8% | 50.9% | 95.1% | – | –
4 | Nc1ncn([C@H]2C[C@H](O)[C@@H](CO)O2)c(=O)n1 [decitabine] + C#Cc1cccc(Nc2ncnc3cc(OCCOC)c(OCCOC)cc23)c1 [erlotinib] (first compound 0.1 µM, partner dose 0.8 µM) | 84.5% | 91% | 77.5% | 90% | 79.4% | 102% | 86.4% | 72% | 78.5% | 82% | 89% | 95.3% | 81.1% | 102% | – | –
5 | Nc1nc(F)nc2c1ncn2[C@@H]1O[C@H](CO)[C@@H](O)[C@@H]1O [fludarabine] + C[C@]1(c2nc3c(C(N)=O)cccc3[nH]2)CCCN1 [Veliparib] (first compound 0.2 µM, partner dose 1.4 µM) | 107% | 37.2% | 99.1% | 127% | 56.3% | 4.5% | 15.9% | 70.1% | 90.4% | 90.3% | 92.4% | 29% | 91.8% | 64.7% | – | –
6 | Nc1nc(F)nc2c1ncn2[C@@H]1O[C@H](CO)[C@@H](O)[C@@H]1O [fludarabine] + CC(=O)c1c(C)c2cnc(Nc3ccc(N4CCNCC4)cn3)nc2n(C2CCCC2)c1=O [palbociclib] (first compound 0.2 µM, partner dose 0.04 µM) | 75.2% | 27.7% | 74.7% | 89.4% | 66.6% | 5.16% | 16.4% | 68% | 66.7% | 69.2% | 74.4% | 30% | 62.4% | 45.9% | – | –
7 | Nc1nc(F)nc2c1ncn2[C@@H]1O[C@H](CO)[C@@H](O)[C@@H]1O [fludarabine] + C=CCNC1=C2C[C@@H](C)C[C@H](OC)[C@H](O)[C@@H](C)/C=C(\C)[C@H](OC(N)=O)[C@@H](OC)/C=C\C=C(/C)C(=O)NC(=CC1=O)C2=O [Tanespimycin] (first compound 0.2 µM, partner dose 0.002 µM) | 107% | 35.7% | 79% | 72% | 92.7% | 6.96% | 22.7% | 93.5% | 97% | 95.2% | 89.5% | 45.5% | 88.3% | 62.7% | – | –
8 | CC(=O)c1c(C)c2cnc(Nc3ccc(N4CCNCC4)cn3)nc2n(C2CCCC2)c1=O [palbociclib] + Cn1nnc2c(C(N)=O)ncn2c1=O [temozolomide] (first compound 0.04 µM, partner dose 2 µM) | 90.7% | 73.6% | 93.6% | 87.2% | 74.3% | 76% | 59.5% | 64.8% | 82.6% | 62.9% | 94.1% | 71.6% | 82.3% | 90.3% | – | –
9 | Nc1ccn([C@@H]2O[C@H](CO)[C@@H](O)C2(F)F)c(=O)n1 [gemcitabine] + COc1ccc(Cl)c(Nc2nc3ccccc3nc2NS(=O)(=O)c2cccc(NC(=O)C(C)(C)N)c2)c1 [XL147] (first compound 0.0004 µM, partner dose 0.8 µM) | 96% | 102% | 96.1% | 112% | 117% | 102% | 107% | 94.1% | 97.4% | 93.8% | 68.7% | 95.4% | 77.8% | 76.7% | – | –
10 | CO[C@H]1C[C@@H]2CC[C@@H](C)[C@@](O)(O2)C(=O)C(=O)N2CCCC[C@H]2C(=O)O[C@H]([C@H](C)C[C@@H]2CC[C@@H](OCCO)[C@H](OC)C2)CC(=O)[C@H](C)/C=C(\C)[C@@H](O)[C@@H](OC)C(=O)[C@H](C)C[C@H](C)/C=C/C=C/C=C/1C [everolimus] + Cc1cc(N2CCOCC2)cc2[nH]c(-c3c(NC[C@@H](O)c4cccc(Cl)c4)cc[nH]c3=O)nc12 [BMS536924] (first compound 0.02 µM, partner dose 0.2 µM) | 61.8% | 65.9% | 94.5% | 83.5% | 55.6% | – | 53% | 78.4% | 78.2% | 75.5% | 72.5% | 62% | 63.9% | 62.9% | 81.6% | 43.2%
11 | CC(=O)O[C@@]12CO[C@@H]1C[C@H](O)[C@@]1(C)C(=O)[C@H](O)C3=C(C)[C@@H](OC(=O)[C@H](O)[C@@H](NC(=O)OC(C)(C)C)c4ccccc4)C[C@@](O)([C@@H](OC(=O)c4ccccc4)[C@H]21)C3(C)C [Docetaxel] + Cn1c(=O)n(-c2ccc(C(C)(C)C#N)cc2)c2c3cc(-c4cnc5ccccc5c4)ccc3ncc21 [NVP-BEZ235] (first compound 0.0001 µM, partner dose 0.004 µM) | 44.7% | 42.7% | 36.8% | 57.6% | 39.9% | 33.9% | 36.9% | 33.4% | 55.1% | 32.6% | 38.7% | 45.3% | 70.3% | 60.8% | – | –
12 | CC(=O)c1c(C)c2cnc(Nc3ccc(N4CCNCC4)cn3)nc2n(C2CCCC2)c1=O [palbociclib] + COCC[n+]1c2c(n(Cc3cnccn3)c1C)C(=O)c1ccccc1C2=O [YM155] (first compound 0.04 µM, partner dose 0.0004 µM) | 49.9% | 86% | 78.6% | 84.7% | 73.2% | 76.1% | 75.6% | 80.1% | 85.7% | 73.3% | 76.3% | 50.5% | 87% | 77.8% | – | –
13 | CO[C@H]1C[C@@H]2CC[C@@H](C)[C@@](O)(O2)C(=O)C(=O)N2CCCC[C@H]2C(=O)O[C@H]([C@H](C)C[C@@H]2CC[C@@H](OCCO)[C@H](OC)C2)CC(=O)[C@H](C)/C=C(\C)[C@@H](O)[C@@H](OC)C(=O)[C@H](C)C[C@H](C)/C=C/C=C/C=C/1C [everolimus] + O=C(O)C(=O)Nc1sc2c(c1C(=O)O)CCNC2 [TCS401] (first compound 0.02 µM, partner dose 1.66667 µM) | 85.7% | 82.2% | 79.7% | 89.1% | 62.8% | – | 74.9% | 59.6% | 72.8% | 83.9% | 78.6% | 64.2% | 56.6% | 69.7% | 94.6% | 65.5%
14 | CO[C@H]1C[C@@H]2CC[C@@H](C)[C@@](O)(O2)C(=O)C(=O)N2CCCC[C@H]2C(=O)O[C@H]([C@H](C)C[C@@H]2CC[C@@H](OCCO)[C@H](OC)C2)CC(=O)[C@H](C)/C=C(\C)[C@@H](O)[C@@H](OC)C(=O)[C@H](C)C[C@H](C)/C=C/C=C/C=C/1C [everolimus] + COc1ccc(COc2ccc(Cc3cnc(N)nc3N)cc2OC)cc1 [GW2580] (first compound 0.02 µM, partner dose 1 µM) | 74% | 77.5% | 82.8% | 80.1% | 50.5% | – | 65.8% | 71.7% | 78.8% | 77.9% | 78.9% | 61% | 79% | 90.6% | 116% | 91%
15 | CO[C@H]1C[C@@H]2CC[C@@H](C)[C@@](O)(O2)C(=O)C(=O)N2CCCC[C@H]2C(=O)O[C@H]([C@H](C)C[C@@H]2CC[C@@H](OCCO)[C@H](OC)C2)CC(=O)[C@H](C)/C=C(\C)[C@@H](O)[C@@H](OC)C(=O)[C@H](C)C[C@H](C)/C=C/C=C/C=C/1C [everolimus] + COc1cc2c(Oc3ccc4[nH]c(C)cc4c3F)ncnc2cc1OCCCN1CCCC1 [cediranib] (first compound 0.02 µM, partner dose 0.4 µM) | 78.4% | 75.9% | 68.7% | 82.1% | 51.2% | – | 66.3% | 74.5% | 87% | 76% | 84.4% | 65.4% | 69.8% | 87.6% | 95.1% | 53.5%
16 | CO[C@H]1C[C@@H]2CC[C@@H](C)[C@@](O)(O2)C(=O)C(=O)N2CCCC[C@H]2C(=O)O[C@H]([C@H](C)C[C@@H]2CC[C@@H](OCCO)[C@H](OC)C2)CC(=O)[C@H](C)/C=C(\C)[C@@H](O)[C@@H](OC)C(=O)[C@H](C)C[C@H](C)/C=C/C=C/C=C/1C [everolimus] + O=C(Nc1ccccc1)c1cc([N+](=O)[O-])ccc1Cl [GW9662] (first compound 0.02 µM, partner dose 2 µM) | 73.9% | 58.6% | 81.6% | 78.3% | 51.2% | – | 53.1% | 61.8% | 90.8% | 66.5% | 82.9% | 68.2% | 58.5% | 82.8% | 108% | 73%
